In the supplement of paper PMC11417369:
The other results are listed elsewhere or left out.

What follows are sequences tested on PfHDP1 homeodomain (GST-tagged) (assay: gcPBM binding intensity (ln(normalized median fluorescence intensity)); higher = stronger DNA binding).
How it was run: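 Binding of GST-tagged P. falciparum DNA-binding domains, expressed in E. coli and used at about 25 μg on average, was carried out for 1 h in 1× PBS containing 1% milk, 0.2 mg/ml BSA, 0.5% salmon testes DNA and 0.03% Triton X-100. The target was an Agilent 4 × 180k array of primer-extended double-stranded 36-bp intergenic genomic probes plus negative controls, read with Alexa488 anti-GST antibody at 488 nm. Binding intensity is the highest Masliner-normalised natural-log median intensity across replicate spots of either probe orientation.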

Row | Sequence | gcPBM binding intensity (ln)
1 | AAAAAAAAAAAAGGAGGTACACAATTTTATATATGC [XGTACX_site5296] | 6.37
2 | ACAAGTCAGGCAAAAACATGCATTATTTGAACATTA [TGCATGCA_site864] | 6.42
3 | ACATTTTTTTCATATCGTACATATTATAATATTTTC [XGTACX_site6524] | 7.09
4 | GAGCATTACCCATATACACACATATATATAAACCTA [CACACA_site2737] | 7.1
5 | TTTCCTTATTAAAACACACAAATACATTATTTAATC [CACACA_site7080] | 6.38
6 | ACCCATAAAAAGGATACACACACACCCACCCATATA [CACACA_site8205] | 7.17
7 | ATATATATATTTGTATGTACATATATATATTCGTAT [XGTACX_site1640] | 8.17
8 | ACTGTAAAAGGATTTACACACATATTTACATTTACA [CACACA_site519] | 6.73
9 | ATGCATATAACTACGTGTACAAATATACACAAATAC [XGTACX_site8811] | 7.05
10 | TACCAATGCATAACGGTGCAAAAAAATAAGGAATAA | 10.3
11 | ATAATTATTTTAGAAACACACAAATTAGAAAAAACA [CACACA_site3636] | 6.98
12 | AATCCTTACGGACACACACACACGAATAAATAAAAA [CACACA_site4422] | 6.68
13 | GAGTATTCAAGTATTAGTACATATTATATAATAAAT [XGTACX_site7630] | 6.64
14 | TAAAATAAAAATTAAAGTACATATGTATATATATAT [XGTACX_site3984] | 8.79
15 | TACAAAATGGGGAACACACACATATATAAATAAATA [CACACA_site7751] | 6.9
16 | CTATCATATTTATGCACACAAAAATAATTAATTCGT [CACACA_site2614] | 9.43
17 | ACCTGTTCATATGATCGTACACGTCAGTTTATATGA [XGTACX_site3869] | 6.81
18 | TATTTTGAGAATAAATGTACGAATTTTATATTTAAA [XGTACX_site1336] | 5.89
19 | ACATTAAAATATGATTGTACATTTTATTATATTATA [XGTACX_site912] | 6.4
20 | ACAACACTATATTACACATGCATTAAGAGAGTGAAC [TGCATGCA_site124] | 6.85
21 | ATTCAAATATTAAAAAGTACAAAAAAAAAACAAAAA [XGTACX_site1174] | 6.66
22 | ATATAATTATTGATATGTACATATTTGTTCTAGTTT [XGTACX_site3012] | 6.95
23 | TTTTTATAAAAATTATTAAAAAAATTATTTATAGCT [CACACA_negctrl_site265] | 5.75

Row | Sequence | gcPBM binding intensity (ln)
24 | TAGCGCATAAAAAAAAAAAAATATATACTAATAAAT [GTGCAC_negctrl_site276] | 6.22
25 | AAATATATTATTATCTTATCAATTAAAAGAATAAAC [CACACA_negctrl_site779] | 6.32
26 | TTTTTTTTCAATCTCTATATATTAAGGTTTATATTT [XGTACX_negctrl_site397] | 6.4
27 | TTACTTAAATATAAGTGTCCTCAAAAAAAAAAAAAA [XGTACX_site460] | 6.17
28 | ATGTATGTTTTTTTTTTATTGTTCAAAAAGTTGAAG [CACACA_negctrl_site1276] | 6.69
29 | ATTTTTTATATTAATTGTACATTGTATATATATATA [XGTACX_site8702] | 8.85
30 | AATATAAGTTTATTAGTGCACAGATAAATATATATT [GTGCAC_site9784] | 9.52
31 | TTTTTTTCTAATTATGCACACATATCAAAATATTCA [CACACA_site8886] | 10.2
32 | ATATTTATTATATAATGTACAAAAAAAAAAAAAAAA [XGTACX_site629] | 6.29
33 | CGTGTGTCCCCCTTAATCATCCAATCGTTCATTTTG [CACACA_negctrl_site1008] | 6.31
34 | TATATAATGGTAAAAACACACAAATATGAAGATGTT [CACACA_site722] | 6.31
35 | CATATTCCCCCCCACACACACACACCCATACATACC [CACACA_site2303] | 9.35
36 | AATAAATAGATATATACACACATATATCTATAATAT [CACACA_site6557] | 6.33
37 | AAATATAAAAGTATATGTACATATATATATATATAT [XGTACX_site7446] | 9.51
38 | GACAATAAAAAGAAAAGTACATATATAAATTAACCA [XGTACX_site7858] | 6.51
39 | TCTTCATTTTTATGTGCATGTAAAATTTTTTTTTTT [TGCATGCA_site963] | 10
40 | AGAGGATCATAGTTATGTACACATATTTAACATAAA [XGTACX_site7232] | 6.27
41 | ATAACATCAGTATTATGTACATATGTAGGTAAATAA [XGTACX_site7066] | 6.89
42 | CGTTATTATACACATACACACAGGAATAAAAAATTA [CACACA_site7373] | 7.11
43 | TTTTATTGTTTTTTTTTTTTTTCTTTTTTTTTTTTT [CACACA_negctrl_site1094] | 5.99
44 | TTTTATCAAATATTTATTTTATACATAAATATTTAT [XGTACX_negctrl_site528] | 6.3
45 | ATTTTGTGTAGTGATGCATGTTATATATATATTTGA [TGCATGCA_site422] | 7.25
46 | AGAAACATATGGTAGTGTACTGTAAATTTATTCTTT [XGTACX_site8602] | 6.56

Row | Sequence | gcPBM binding intensity (ln)
47 | ACTATTATTAAAAATTGTACTTTCTATAAATTTTTT [XGTACX_site7825] | 6.47
48 | TTCTGACTTGTTATAATTTGTATATCCGAAAAAATT [TGCATGCA_negctrl_site456] | 6.27
49 | TACATATTTTGTATATATTATTTATTTTATTAGTTT [XGTACX_negctrl_site85] | 6.21
50 | CATACTGTTATAAAATGTACGCATATACACACACAT [XGTACX_site7256] | 7.1
51 | GATCTATACATGGGGACACACATCACTCTATATTTT [CACACA_site3408] | 6.7
52 | ATTTGTTATATATTCTTTTATGTTAATAATTCGAAT [CACACA_negctrl_site378] | 6.37
53 | AAAAAATACAAACACACACACACACCCATATATATA [CACACA_site3560] | 7.01
54 | TATGAATAAAAAAGAAGTACAAATTATATGAACGCA [XGTACX_site3018] | 6.93
55 | CTTTTTATTTAGGAGGTGCATGTAATACGGAACATA | 8.26
56 | TTTTGTTTAATATTCACACATATATATTTTTTATTT [CACACA_site5496] | 6.8
57 | GGTAATTTCCTTTTTTGTACTCATAGAAGGATAATA [XGTACX_site89] | 6.4
58 | TTTCTTCTTCTATTGTGTACGTAAAAAAAAAAAAAA [XGTACX_site772] | 6.55
59 | TTTGAAATATTAAATGCATGTTAAAACATAAAAATG [TGCATGCA_site680] | 6.59
60 | ATTATATTAAAATACACACCCAAATATTAAAAAGAT [CACACA_site5613] | 7.39
61 | TGATAAAATGGGGAAATTCATTATATCATATCTTGG [CACACA_negctrl_site789] | 6.36
62 | TTGGATAAAAAATATGTACACACATATAGATATCTA [CACACA_site8862] | 6.31
63 | AAGAAAAAAATTTAATTAAATGAAATTTTTGAATTA [TGCATGCA_negctrl_site25] | 5.97
64 | AAGACTGCACTTTAAGCACACAAATATATTTTTTTT [CACACA_site8337] | 8.04
65 | AAATTAATATATAAAAGTACCCATATATTTAATATA [XGTACX_site3551] | 6.09
66 | TTTTTTTTTTGTTGAGTGCAATTATTTGTAAGAAAA | 8.7
67 | TCAAAGCACCCATACACACACATATATATATATATA [CACACA_site4317] | 9.46
68 | GTACGTTACATAAATGTGCACATATTATATGCGAAG | 10.7
69 | GTCATATATATATGTACACACATATATATATTTATA [CACACA_site1459] | 6.45

Row | Sequence | gcPBM binding intensity (ln)
70 | AGTTTGTTTTTTTTTTTTTTTTCCTGTCACAAACAA [CACACA_negctrl_site1093] | 6.48
71 | TATAACAAAATATTCACACATATAAGTAAATAAAGG [CACACA_site5777] | 6.57
72 | TCTCCACCTCTCTTGGTGCGTTATACCCTCGAGGCT | 7.09
73 | TCAGATATATATATATAAATATATATTTTGAAATGT [CACACA_negctrl_site686] | 6.55
74 | TAGTATCCAAGAAAAAGTACTTATTTTAATTTTTTA [XGTACX_site6243] | 5.85
75 | TCATTTAAGTAGACGCGTACGGAAATTACGAATCCT [XGTACX_site144] | 6.16
76 | AATATTTATAAAGACACACAAACAAAAAGGATAAAA [CACACA_site2985] | 7.54
77 | AAAAATAAAGGATATACACACTAATTATATATATAT [CACACA_site5550] | 8.49
78 | AAAGTGGCCATATATTTTTTTTTTTTTTTCCTTATT [CACACA_negctrl_site485] | 5.91
79 | ATTATTATATTTATATGTACATAGAAAAAATTAAAT [XGTACX_site2058] | 6.47
80 | GTGTTAACTATTATGAGTACTTATGTATTAATTCAT [XGTACX_site7767] | 6.74
81 | TTGCTTATTAAATGGGGTACATTATATATATATATA [XGTACX_site2515] | 8.97
82 | GTTTACTAATATTGCACACGAATATGAAAAAGAGAA [CACACA_site2897] | 10.6
83 | TTTCTAATTTATATCACACACATATATTTATAGTAA [CACACA_site6280] | 6.53
84 | TTCAGAGAATAAAAATGTACATATAATATTTTAAAA [XGTACX_site577] | 6.39
85 | ATGTAGGTTAATTATTGTACGTAGGGGGTGTATATT [XGTACX_site3973] | 8.01
86 | CTCTTGTCATTTTGCACACACACATGTATAGGTTAT [CACACA_site3057] | 11.1
87 | TAAATTTGTGGGATTTCACACAGGTTTATTTACATT [CACACA_site5455] | 5.97
88 | TATTACCCATATTATACACACATATATTATATATAT [CACACA_site1567] | 7.08
89 | CTGTTTTACTTTAGTAGTACAATAAAAATATAAAAA [XGTACX_site2934] | 6.23
